From the supplement of paper PMC11741623
This is one part of the list. Interaction screen of human proteins with wild-type SARS-CoV-2 proteins by split-DHFR complementation in yeast, 1 µg/mL methotrexate. Value = fitness of the pair (three or more lineages) minus that of the viral protein without a human partner, on a scale set by negative (0) and fused positive (1) controls, mean of up to three cultures; higher = more likely to interact. Active = false discovery rate below 0.05 (one-sided t-test) in at least one culture. Nearly all pairs are not hits, and differences among them are mostly noise (correlation between cultures about 0.3); most hits were seen in one culture only. Human sequences are the Swiss-Prot entries looked up by gene name; the clone may be another isoform. NSP2 values were corrected by the authors for a growth advantage. Listed are human proteins with a hit and a random twelfth of the others.

Assays:
Assay in all cases: yeast fitness gain over the viral ORF with no human partner (scaled fitness); higher = more likely to interact
SARS-CoV-2 M = molecular target: SARS-CoV-2 M
Procedure: (§1)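 Split mouse DHFR complementation in pooled diploid yeast: human ORFeome clones carry one fragment and viral ORFs the other; barcoded lineages compete in 1 µg/mL methotrexate and fitness is read by barcode sequencing in up to three cultures.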

SARS-CoV-2 N = molecular target: SARS-CoV-2 N
Procedure: as §1

SARS-CoV-2 NSP10 = molecular target: SARS-CoV-2 NSP10
Procedure: as §1

SARS-CoV-2 NSP12 = molecular target: SARS-CoV-2 NSP12
Procedure: as §1

SARS-CoV-2 NSP13 = molecular target: SARS-CoV-2 NSP13
Procedure: as §1

SARS-CoV-2 NSP15 = molecular target: SARS-CoV-2 NSP15
Procedure: as §1

SARS-CoV-2 NSP16 = molecular target: SARS-CoV-2 NSP16
Procedure: as §1

SARS-CoV-2 NSP2 = molecular target: SARS-CoV-2 NSP2
Procedure: as §1

SARS-CoV-2 NSP5 = molecular target: SARS-CoV-2 NSP5
Procedure: as §1

SARS-CoV-2 NSP7 = molecular target: SARS-CoV-2 NSP7
Procedure: as §1

SARS-CoV-2 NSP8 = molecular target: SARS-CoV-2 NSP8
Procedure: as §1

SARS-CoV-2 NSP9 = molecular target: SARS-CoV-2 NSP9
Procedure: as §1

SARS-CoV-2 ORF10 = molecular target: SARS-CoV-2 ORF10
Procedure: as §1

SARS-CoV-2 ORF3B = molecular target: SARS-CoV-2 ORF3B
Procedure: as §1

SARS-CoV-2 ORF6 = molecular target: SARS-CoV-2 ORF6
Procedure: as §1

SARS-CoV-2 ORF7A = molecular target: SARS-CoV-2 ORF7A
Procedure: as §1

SARS-CoV-2 ORF7B = molecular target: SARS-CoV-2 ORF7B
Procedure: as §1

SARS-CoV-2 ORF8 = molecular target: SARS-CoV-2 ORF8
Procedure: as §1

SARS-CoV-2 ORF9B = molecular target: SARS-CoV-2 ORF9B
Procedure: as §1

[1] = molecular target: SARS-CoV-2 ORF9Bwu (the 73-codon ORF)
Procedure: as §1

SARS-CoV-2 S = molecular target: SARS-CoV-2 S
Procedure: as §1

SARS-CoV-2 NSP1 = molecular target: SARS-CoV-2 NSP1
Procedure: as §1

SARS-CoV-2 NSP14 = molecular target: SARS-CoV-2 NSP14
Procedure: as §1

SARS-CoV-2 NSP4 = molecular target: SARS-CoV-2 NSP4
Procedure: as §1

SARS-CoV-2 NSP6 = molecular target: SARS-CoV-2 NSP6
Procedure: as §1

SARS-CoV-2 ORF3A = molecular target: SARS-CoV-2 ORF3A
Procedure: as §1

Measured: yeast fitness gain

B1: GNAT2, P19087 (protein)
chain: MGSGASAEDKELAKRSKELEKKLQEDADKEAKTVKLLLLGAGESGKSTIVKQMKIIHQDGYSPEECLEFKAIIYGNVLQSILAIIRAMTTLGIDYAEPSCADDGRQLNNLADSIEEGTMPPELVEVIRRLWKDGGVQACFERAAEYQLNDSASYYLNQLERITDPEYLPSEQDVLRSRVKTTGIIETKFSVKDLNFRMFDVGGQRSERKKWIHCFEGVTCIIFCAALSAYDMVLVEDDEVNRMHESLHLFNSICNHKFFAATSIVLFLNKKDLFEEKIKKVHLSICFPEYDGNNSYDDAGNYIKSQFLDLNMRKDVKEIYSHMTCATDTQNVKFVFDAVTDIIIKENLKDCGLF
inactive: SARS-CoV-2 M -0.142 | SARS-CoV-2 N -0.123 | SARS-CoV-2 NSP10 = -0.0889 | SARS-CoV-2 NSP12 = 0.0347 | SARS-CoV-2 NSP13 = 0.0216 | SARS-CoV-2 NSP15 = -0.208 | SARS-CoV-2 NSP16 = -0.0298 | SARS-CoV-2 NSP2 = -0.107 | SARS-CoV-2 NSP5 = -0.0234 | SARS-CoV-2 NSP7 = 0.0274 | SARS-CoV-2 NSP8 = -0.0737 | SARS-CoV-2 NSP9 = -0.0313 | SARS-CoV-2 ORF10 = -0.00625 | SARS-CoV-2 ORF3B -0.0105 | SARS-CoV-2 ORF6 = 0.0416 | SARS-CoV-2 ORF7A 0.0115 | SARS-CoV-2 ORF7B 0.0309 | SARS-CoV-2 ORF8 = 0.0126 | SARS-CoV-2 ORF9B 0.00967 | [1] -0.0755 | SARS-CoV-2 S -0.169

B2: MAB21L3, Q8N8X9 (protein)
chain: MKYLTVGDLEDCLLNKVDLRRQQISQAVEEVQKVVHHLTTNISNQDIRFQAVPYSDTYNENIKVLAPSQFLVTVPIKGLAGYREAREQHWRYYTLQGTRLPCPLRDPEGLQQWLEVEQFMKSLWQWHETDVNIDGDIVPAKVLLVFRKLVENAVRTCHLSGKVSLLGNRSAVWVAVETSAYQVELELVPAVEIPTTWSKKARWPRCLQRWPSQERVECIKSFGFNLLACSNYHWQLSFLRAEQVLLEQLDEDGGCRRKCFQVMRHLKEDIWCPGNRPVITSHHLQTVLFWTCEKYPHFKDWQVFSKAFLRLVRKLHKCVSQHFLKHYFVRNSNLFQCTNPTELDTVAQKLATFLKNPQIGPP
inactive: SARS-CoV-2 M 0.0706 | SARS-CoV-2 N -0.015 | SARS-CoV-2 NSP1 = 0.0568 | SARS-CoV-2 NSP10 = 0.0773 | SARS-CoV-2 NSP12 = -0.0219 | SARS-CoV-2 NSP13 = 0.109 | SARS-CoV-2 NSP14 = 0.0807 | SARS-CoV-2 NSP15 = 0.0153 | SARS-CoV-2 NSP16 = 0.00487 | SARS-CoV-2 NSP2 = -0.0291 | SARS-CoV-2 NSP4 = -0.18 | SARS-CoV-2 NSP5 = 0.0148 | SARS-CoV-2 NSP6 = 0.0652 | SARS-CoV-2 NSP7 = 0.0171 | SARS-CoV-2 NSP8 = 0.0122 | SARS-CoV-2 ORF10 = 0.112 | SARS-CoV-2 ORF3B -0.0495 | SARS-CoV-2 ORF6 = 0.00389 | SARS-CoV-2 ORF7A -0.0667 | SARS-CoV-2 ORF7B -0.141 | SARS-CoV-2 ORF8 = 0.0583 | SARS-CoV-2 ORF9B -0.0449 | [1] -0.0897 | SARS-CoV-2 S 0.166

B3: HSPB6, O14558 (protein)
chain: MEIPVPVQPSWLRRASAPLPGLSAPGRLFDQRFGEGLLEAELAALCPTTLAPYYLRAPSVALPVAQVPTDPGHFSVLLDVKHFSPEEIAVKVVGEHVEVHARHEERPDEHGFVAREFHRRYRLPPGVDPAAVTSALSPEGVLSIQAAPASAQAPPPAAAK
inactive: SARS-CoV-2 M -0.0566 | SARS-CoV-2 N -0.0131 | SARS-CoV-2 NSP1 = -0.00178 | SARS-CoV-2 NSP10 = -0.133 | SARS-CoV-2 NSP12 = -0.0955 | SARS-CoV-2 NSP13 = -0.132 | SARS-CoV-2 NSP14 = -0.208 | SARS-CoV-2 NSP15 = -0.0966 | SARS-CoV-2 NSP16 = -0.0492 | SARS-CoV-2 NSP2 = -0.36 | SARS-CoV-2 NSP5 = -0.0296 | SARS-CoV-2 NSP6 = -0.11 | SARS-CoV-2 NSP8 = -0.105 | SARS-CoV-2 NSP9 = -0.0911 | SARS-CoV-2 ORF10 = 0.109 | SARS-CoV-2 ORF3B -0.0674 | SARS-CoV-2 ORF6 = -0.007 | SARS-CoV-2 ORF7A 0.132 | SARS-CoV-2 ORF7B -0.072 | SARS-CoV-2 ORF8 = 0.0477 | SARS-CoV-2 ORF9B 0.0342 | [1] -0.0764 | SARS-CoV-2 S 0.0498

B4: LGALS8, O00214 (protein)
chain: MMLSLNNLQNIIYNPVIPFVGTIPDQLDPGTLIVIRGHVPSDADRFQVDLQNGSSMKPRADVAFHFNPRFKRAGCIVCNTLINEKWGREEITYDTPFKREKSFEIVIMVLKDKFQVAVNGKHTLLYGHRIGPEKIDTLGIYGKVNIHSIGFSFSSDLQSTQASSLELTEISRENVPKSGTPQLRLPFAARLNTPMGPGRTVVVKGEVNANAKSFNVDLLAGKSKDIALHLNPRLNIKAFVRNSFLQESWGEEERNITSFPFSPGMYFEMIIYCDVREFKVAVNGVHSLEYKHRFKELSSIDTLEINGDIHLLEVRSW
inactive: SARS-CoV-2 M -0.0139 | SARS-CoV-2 N 0.065 | SARS-CoV-2 NSP1 = 0.0889 | SARS-CoV-2 NSP10 = 0.00816 | SARS-CoV-2 NSP12 = 0.0305 | SARS-CoV-2 NSP13 = 0.032 | SARS-CoV-2 NSP15 = -0.0865 | SARS-CoV-2 NSP2 = -0.0879 | SARS-CoV-2 NSP4 = -0.0216 | SARS-CoV-2 NSP5 = 0.0305 | SARS-CoV-2 NSP7 = 0.122 | SARS-CoV-2 NSP8 = 0.0257 | SARS-CoV-2 NSP9 = -0.0286 | SARS-CoV-2 ORF10 = 0.108 | SARS-CoV-2 ORF3A -0.0819 | SARS-CoV-2 ORF3B 0.0545 | SARS-CoV-2 ORF6 = 0.0157 | SARS-CoV-2 ORF7A 0.00745 | SARS-CoV-2 ORF7B -0.0176 | SARS-CoV-2 ORF8 = 0.0376 | SARS-CoV-2 ORF9B 0.00518 | [1] -0.0024 | SARS-CoV-2 S 0.00121
